# Laboratory results reported in the supplement of paper PMC8728848.
# The list shows a part of the results.
# What was measured:
# Assay in all cases: glycan array binding signal (z-score within array); higher = stronger binding
# Conditions in all cases: glycan notation: IUPAC condensed, linker removed
# [1] = target: Gal(b1-3)GlcNAc(b1-6)[Gal(b1-3)]GalNAc
# In short: (§1)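 Columns mapping to the same glycan were averaged after glycan names were converted to IUPAC-condensed notation. The data come from 3228 arrays in the Consortium for Functional Glycomics database, limited to those with an available protein sequence. Binding is reported as a within-array Z-score averaged across arrays of one protein sequence and across linkers.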
# Gal(b1-3)GlcNAc6S = target: Gal(b1-3)GlcNAc6S
# In short: as §1
# [2] = target: Gal(b1-3)[Fuc(a1-4)]GlcNAc
# In short: as §1
# [3] = target: Gal(b1-3)[Fuc(a1-4)]GlcNAc(b1-2)Man
# In short: as §1
# [4] = target: Gal(b1-3)[Fuc(a1-4)]GlcNAc(b1-2)Man(a1-3)[Gal(b1-3)[Fuc(a1-4)]GlcNAc(b1-2)Man(a1-6)]Man(b1-4)GlcNAc(b1-4)[Fuc(a1-6)]GlcNAc
# In short: as §1
# [5] = target: Gal(b1-3)[Fuc(a1-4)]GlcNAc(b1-3)Gal(b1-3)[Fuc(a1-4)]GlcNAc
# In short: as §1
# [6] = target: Gal(b1-3)[Fuc(a1-4)]GlcNAc(b1-3)Gal(b1-4)[Fuc(a1-3)]GlcNAc
# In short: as §1
# [7] = target: Gal(b1-3)[Fuc(a1-4)]GlcNAc(b1-6)GalNAc
# In short: as §1
# [8] = target: Gal(b1-3)[GlcNAc(b1-6)]GalNAc
# In short: as §1
# [9] = target: Gal(b1-3)[Neu5Ac(a2-6)]GalNAc
# In short: as §1
# [10] = target: Gal(b1-3)[Neu5Ac(a2-6)]GlcNAc(b1-4)Gal(b1-4)Glc
# In short: as §1
# [11] = target: Gal(b1-3)[Neu5Ac(b2-6)]GalNAc
# In short: as §1
# Gal(b1-4)Gal = target: Gal(b1-4)Gal
# In short: as §1
# [12] = target: Gal(b1-4)GalNAc(a1-3)[Fuc(a1-2)]Gal(b1-4)GlcNAc
# In short: as §1
# [13] = target: Gal(b1-4)GalNAc(b1-3)[Fuc(a1-2)]Gal(b1-4)GlcNAc
# In short: as §1
# Gal(b1-4)Glc = target: Gal(b1-4)Glc
# In short: as §1
# Gal(b1-4)Glc6S = target: Gal(b1-4)Glc6S
# In short: as §1
# Gal(b1-4)GlcNAc = target: Gal(b1-4)GlcNAc
# In short: as §1
# [14] = target: Gal(b1-4)GlcNAc(a1-6)Gal(b1-4)GlcNAc
# In short: as §1
# Gal(b1-4)GlcNAc(b1-2)Man = target: Gal(b1-4)GlcNAc(b1-2)Man
# In short: as §1
# [15] = target: Gal(b1-4)GlcNAc(b1-2)Man(a1-3)Man(b1-4)GlcNAc(b1-4)GlcNAc
# In short: as §1
# [16] = target: Gal(b1-4)GlcNAc(b1-2)Man(a1-3)[Gal(b1-4)GlcNAc(b1-2)Man(a1-6)]Man(b1-4)GlcNAc(b1-4)GlcNAc
# In short: as §1
# [17] = target: Gal(b1-4)GlcNAc(b1-2)Man(a1-3)[Gal(b1-4)GlcNAc(b1-2)Man(a1-6)]Man(b1-4)GlcNAc(b1-4)[Fuc(a1-6)]GlcNAc
# In short: as §1
# [18] = target: Gal(b1-4)GlcNAc(b1-2)Man(a1-3)[Gal(b1-4)GlcNAc(b1-2)Man(a1-6)][Gal(b1-4)GlcNAc(b1-4)]Man(b1-4)GlcNAc(b1-4)[Fuc(a1-6)]GlcNAc
# In short: as §1
# [19] = target: Gal(b1-4)GlcNAc(b1-2)Man(a1-3)[Gal(b1-4)GlcNAc(b1-2)Man(a1-6)][GlcNAc(b1-4)]Man(b1-4)GlcNAc(b1-4)[Fuc(a1-6)]GlcNAc
# In short: as §1
# [20] = target: Gal(b1-4)GlcNAc(b1-2)Man(a1-3)[GlcNAc(b1-2)Man(a1-6)]Man(b1-4)GlcNAc(b1-4)GlcNAc
# In short: as §1
# [21] = target: Gal(b1-4)GlcNAc(b1-2)Man(a1-3)[GlcNAc(b1-4)][Gal(b1-4)GlcNAc(b1-2)Man(a1-6)]Man(b1-4)GlcNAc(b1-4)GlcNAc
# In short: as §1
# [22] = target: Gal(b1-4)GlcNAc(b1-2)Man(a1-3)[Man(a1-6)]Man(b1-4)GlcNAc(b1-4)GlcNAc
# In short: as §1
# [23] = target: Gal(b1-4)GlcNAc(b1-2)Man(a1-6)Man(b1-4)GlcNAc(b1-4)GlcNAc
# In short: as §1
# [24] = target: Gal(b1-4)GlcNAc(b1-2)Man(a1-6)[GlcNAc(b1-2)Man(a1-3)]Man(b1-4)GlcNAc(b1-4)GlcNAc
# In short: as §1
# [25] = target: Gal(b1-4)GlcNAc(b1-2)Man(a1-6)[Man(a1-3)]Man(b1-4)GlcNAc(b1-4)GlcNAc
# In short: as §1
# [26] = target: Gal(b1-4)GlcNAc(b1-2)[Gal(b1-4)GlcNAc(b1-4)]Man(a1-3)[Gal(b1-4)GlcNAc(b1-2)Man(a1-6)]Man(b1-4)GlcNAc(b1-4)GlcNAc
# In short: as §1
# [27] = target: Gal(b1-4)GlcNAc(b1-2)[Gal(b1-4)GlcNAc(b1-4)]Man(a1-3)[Gal(b1-4)GlcNAc(b1-2)[Gal(b1-4)GlcNAc(b1-6)]Man(a1-6)]Man(b1-4)GlcNAc(b1-4)GlcNAc
# In short: as §1
# [28] = target: Gal(b1-4)GlcNAc(b1-2)[Gal(b1-4)GlcNAc(b1-4)]Man(a1-3)[GlcNAc(b1-4)][Gal(b1-4)GlcNAc(b1-2)Man(a1-6)]Man(b1-4)GlcNAc(b1-4)GlcNAc
# In short: as §1
# [29] = target: Gal(b1-4)GlcNAc(b1-2)[Gal(b1-4)GlcNAc(b1-4)]Man(a1-3)[GlcNAc(b1-4)][Gal(b1-4)GlcNAc(b1-2)[Gal(b1-4)GlcNAc(b1-6)]Man(a1-6)]Man(b1-4)GlcNAc(b1-4)GlcNAc
# In short: as §1
# [30] = target: Gal(b1-4)GlcNAc(b1-2)[Gal(b1-4)GlcNAc(b1-6)]Man(a1-6)[Gal(b1-4)GlcNAc(b1-2)Man(a1-3)]Man(b1-4)GlcNAc(b1-4)GlcNAc
# In short: as §1
# [31] = target: Gal(b1-4)GlcNAc(b1-2)[Gal(b1-4)GlcNAc(b1-6)]Man(a1-6)[Gal(b1-4)GlcNAc(b1-2)Man(a1-3)]Man(b1-4)GlcNAc(b1-4)[Fuc(a1-6)]GlcNAc
# In short: as §1
binder,measurement,setting,value
GS13686A-pdi-553-26-553 (Parabacteroides distasonis) (protein) NENPDKPTDDVNYNMNEPRLASTLRGGLIIEGNVEQRLKPLQIDFYSQMTVDGGGWGTKNYIQDDEWNNLVWEEYLKQIASINIVIRSLTEKDKDAYANTIAFARIWRVYVHTLAADKFGPMPFPAYEIVEANPPYKSLKDIYDEYFRELDAAINGFNDSAQPIFSDAGIDLIYKNDVSKWKRFANSLRLRLAVRLTEVDQEKCIAEANAAISSPAGLISDKADNAYMPPKADGSWGQDYNYTMFQITWSGPICMSKSVEKLVTNIGGVAWPQGVVNQTSGVAVSSVHPEKVDPRAPKIFQPGIENGDWKGLVYGPKAEEANTGIYQSKQCAELGFIIKDGYPYKSRPYDLFLSEEVHFLKAELYARGFIAGDAKSEYEAGVRASFATWGVTSEVDDYLTSTEKNEAGTSARYDDQQGAGNTALEKIITQKYIAGIPDLAQEGWNDKRRLNLPRLDVAVYRDQAVYNNNDKDILKSANFIKRMRYPTKESLINATEYEKGKSMLGGKGDIVSTPLWWDKNSNYCTSSK,glycan array binding signal (z-score),[1],0.013
same,glycan array binding signal (z-score),Gal(b1-3)GlcNAc6S,-0.201
same,glycan array binding signal (z-score),[2],-0.111
same,glycan array binding signal (z-score),[3],0.543
same,glycan array binding signal (z-score),[4],0.482
same,glycan array binding signal (z-score),[5],-0.069
same,glycan array binding signal (z-score),[6],-0.283
same,glycan array binding signal (z-score),[7],0.527
same,glycan array binding signal (z-score),[8],-0.294
same,glycan array binding signal (z-score),[9],0.249
same,glycan array binding signal (z-score),[10],-0.303
same,glycan array binding signal (z-score),[11],1.03
same,glycan array binding signal (z-score),Gal(b1-4)Gal,0.323
same,glycan array binding signal (z-score),[12],-0.285
same,glycan array binding signal (z-score),[13],-0.325
same,glycan array binding signal (z-score),Gal(b1-4)Glc,-0.275
same,glycan array binding signal (z-score),Gal(b1-4)Glc6S,0.015
same,glycan array binding signal (z-score),Gal(b1-4)GlcNAc,-0.162
same,glycan array binding signal (z-score),[14],0.257
same,glycan array binding signal (z-score),Gal(b1-4)GlcNAc(b1-2)Man,-0.001
same,glycan array binding signal (z-score),[15],-0.119
same,glycan array binding signal (z-score),[16],-0.254
same,glycan array binding signal (z-score),[17],-0.043
same,glycan array binding signal (z-score),[18],-0.035
same,glycan array binding signal (z-score),[19],1.35
same,glycan array binding signal (z-score),[20],-0.261
same,glycan array binding signal (z-score),[21],-0.013
same,glycan array binding signal (z-score),[22],-0.017
same,glycan array binding signal (z-score),[23],0.663
same,glycan array binding signal (z-score),[24],0.027
same,glycan array binding signal (z-score),[25],-0.04
same,glycan array binding signal (z-score),[26],-0.193
same,glycan array binding signal (z-score),[27],2.01
same,glycan array binding signal (z-score),[28],-0.074
same,glycan array binding signal (z-score),[29],0.172
same,glycan array binding signal (z-score),[30],0.115
same,glycan array binding signal (z-score),[31],0
